Test results: the supplement of paper PMC11417369
± gives the standard deviation of the averaged measurements. The list shows a part of the results.

The sequences below were run on PfAP2-I AP2 domain 3 (GST-tagged) (assay: gcPBM binding intensity (ln(normalized median fluorescence intensity)); higher = stronger DNA binding).
Outline: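 Binding of GST-tagged P. falciparum DNA-binding domains, expressed in E. coli and used at about 25 μg on average, was carried out for 1 h in 1× PBS containing 1% milk, 0.2 mg/ml BSA, 0.5% salmon testes DNA and 0.03% Triton X-100. The target was an Agilent 4 × 180k array of primer-extended double-stranded 36-bp intergenic genomic probes plus negative controls, read with Alexa488 anti-GST antibody at 488 nm. Binding intensity is the highest Masliner-normalised natural-log median intensity across replicate spots of either probe orientation.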

Sequence	gcPBM binding intensity (ln)
ATGTATTTAATAAGAACACACATATATTTAATTTAA [CACACA_site5606]	7.54 ± 0.63
TCTTTTTTTAATAAAACATGCAATATTATATATGTA [TGCATGCA_site236]	7.79 ± 0.65
GTAATTATTAATAAAACATGCGTATAAAATTTTCTC [TGCATGCA_site50]	7.73 ± 0.51
TAAATTCTTTAAAACTTTAAAACAAAAAAAAAAAAA [CACACA_negctrl_site1078]	7.92 ± 0.93
AAAAAAATATATATATATATATATATATATTTATAT [XGTACX_negctrl_site86]	8.25 ± 0.48
AAACAAAAAATATATACACACTAAACATAAAAAAAA [CACACA_site4185]	7.81 ± 0.65
AGTGACACCAAAGGGGTGCAATGAAATTAAAAATAT	10.7 ± 0.24
TTTATTCATTTCTAAAAATATTAAAATAGAATGAAT [CACACA_negctrl_site325]	7.42 ± 0.45
TAAAAAAAAATAAATGGTACACAATTAAATGTTTAT [XGTACX_site5255]	7.7 ± 0.57
ATAAGAAAATCAAAAAGTACTTTTTACAAAGATAAA [XGTACX_site824]	7.79 ± 0.19
ATATACTATATATAATGTACATATATATTATTATGC [XGTACX_site2957]	7.72 ± 0.47
ATTTTATGATATATTTGTACTTAACATTTGGATATA [XGTACX_site5888]	7.8 ± 0.49
TAGTTTTTTATATATTGTACAAATAATATATTATAT [XGTACX_site2564]	7.91 ± 0.34
AAAAAAAAAAAAAGAACATGCGACTTTAAGAACTGG [TGCATGCA_site792]	7.82 ± 0.56
TATGAAAATAAAATATGTACATATTTTAAATGTTAT [XGTACX_site7352]	8.04 ± 0.37
CAAATGTGTTCTTCAGGTACAGATACACATTTATGA [XGTACX_site2664]	7.5 ± 0.57
TAAAAAATTATATATTGTACGAATGCATAAAAAAAA [XGTACX_site4606]	8.45 ± 0.59
CACCATGTTAACAAAGCATGCATCTCTATAGTTTTA [TGCATGCA_site97]	7.83 ± 0.71
CCCAAAAAAAATTTATGTACTTATTAAATATATATA [XGTACX_site6455]	8.1 ± 0.55
TTTATATAAATTTAAGTGCAAAATGAACAAGTGAAA	10.1 ± 0.15
AAAATATATATTTGTTGTACAATATTAATTATTAAA [XGTACX_site1612]	7.83 ± 0.31
TTCAATGCTAATTTATGTACATATGTATATAAAATA [XGTACX_site8335]	7.59 ± 0.36
TGCAAAGGTGAAAGAACACACAAAAAAAAAAAAAAA [CACACA_site4024]	8.14 ± 0.64

Sequence	gcPBM binding intensity (ln)
TTCAAAGGGAAATTAACACACACATATATATATATA [CACACA_site8777]	9.44 ± 0.52
TTTTTAATCTCATATGTATAATATATTTTTATTAAA [XGTACX_negctrl_site236]	7.59 ± 0.48
AATTTTAGATTTAGCACACATTTTTTTTTTTTTTTT [CACACA_site6105]	8.69 ± 0.57
TATGAAATTAGAATTACACACAGGAAAATAAAATGC [CACACA_site6822]	8.12 ± 0.63
TATATATATACCAACACACATACATATATATATATA [CACACA_site1795]	9.24 ± 0.34
TGAATAAATATATATACACACATATCTGTATTTATT [CACACA_site4991]	7.52 ± 0.59
AAATTTGGCAGACACACACACACACGCACACGCACA [CACACA_site6423]	8.41 ± 0.51
TATATATATTTAAAGGTGCAGATGCCAGTGTATATT	9.63 ± 0.042
AATGAACTCACGAGCACACACACACCGATATATATA [CACACA_site4710]	8.29 ± 0.79
ATAAATATATTTAAATGTACATAATATATATATATA [XGTACX_site5137]	9.15 ± 0.48
ACATATTCATATGGAAGTACGATAATGTAGTCATAT [XGTACX_site7080]	7.75 ± 0.61
ATATATACATACAAATTAATTACGAGGAATATATTA [XGTACX_negctrl_site417]	7.67 ± 0.42
GGAACTTATTTTTATACACACATATGTGCATATTAT [CACACA_site629]	9.27 ± 0.27
GTAAAAAAATTAAAAATTAACAAGGAATTAAGTATA [CACACA_negctrl_site1688]	7.42 ± 0.61
TATACATATATATACACACACACATATATATATATA [CACACA_site1299]	9.16 ± 0.42
ATCATAAATATAGCAACACACGGATTACATAAAATA [CACACA_site2796]	7.92 ± 0.49
TTAAAAAAATAATTAACACACACATGTATATCTATA [CACACA_site9026]	7.51 ± 0.5
TTGTAATAAATAAAAGTGCAGATATGGTTCCACTAA [GTGCAC_site9942]	9.36 ± 0.21
TTTGCGTAGAAATGTGTGCACTGATATTTATAATAA [GTGCAC_site9526]	10.6 ± 0.035
ATTTTCCTTTTACCACGTACACATAAAAACGTTATA [XGTACX_site3595]	8.31 ± 0.86
TGAACTCATAGGAAAACACACATATGGGTAATATAT [CACACA_site187]	7.9 ± 0.62
AAAAAAAATCAAATGGGTACTTATTCTTAATAATAT [XGTACX_site3792]	7.57 ± 0.57
TATTAAATATTGTATACATGCAAATACTAGAAAATT [TGCATGCA_site370]	9.15 ± 0.95

Sequence	gcPBM binding intensity (ln)
AATAATATAAATATTACACACTAATTGTATTATAGA [CACACA_site6347]	7.52 ± 0.41
TATATAACCGAGTGCACACACAAAAAAAAAGTGAAC [CACACA_site6806]	10.2 ± 0.49
AGGAAACAAGAAATGAAGAATCATGTAGAAGGCCCA [GTGCAC_negctrl_site187]	7.36 ± 0.65
CACAGTGATATAAAAACACACATGAATTCTAATTTC [CACACA_site6884]	7.56 ± 0.44
AGGTATGTCTATAAATGTACATATGAGTTCAATTTC [XGTACX_site2244]	7.79 ± 0.45
AAATATATATAAACAAGTACATATTTAAAAAAAGGA [XGTACX_site2631]	7.74 ± 0.49
CATAAAAATATTAATAAACACACAATCAGATATTGA [CACACA_site9032]	7.37 ± 0.6
ATATATATGAAACACACACACAAAAAAAAAAAAAAA [CACACA_site3647]	7.96 ± 0.75
ATAACACAAAATTGTTGTACACGTGTTAATAAGTGA [XGTACX_site4452]	8.19 ± 0.54
AATATTTATATAAATGCATGCTGATACAACAGTCTT [TGCATGCA_site21]	7.91 ± 0.83
TAAAGTTATGCAATAACACACATATACAATACATAT [CACACA_site6698]	7.99 ± 0.7
ATATTACGCACAAAAAAAAAAAAAAAAAAAAAAAAA [CACACA_negctrl_site941]	10.2 ± 0.68
ATGATGTGCTTTAAAAGTACTTAAGTTATATTCTTT [XGTACX_site7127]	9.61 ± 0.3
AAAATTAAAATTTTCACACAGATATATTTACAATTT [CACACA_site5692]	7.33 ± 0.61
TTCGTAACTGATTCAACACACAAAAGGGGGAAAATT [CACACA_site1754]	8.77 ± 0.057
AAAAAGAAGAATAATACACACAAATTACTTTATATA [CACACA_site6984]	7.39 ± 0.6
TAAATTAAAAAAAATACACACACACCGACACATATA [CACACA_site9084]	8.265 ± 0.078
TATGTTATATAATATTGTACACAAAATGGTTTCTAT [XGTACX_site7686]	7.74 ± 0.5
AATTACAAATATTCATGTACATATTTATAAATACAT [XGTACX_site5430]	7.87 ± 0.52
ATATATATATATATGTGTACATATATTAAGATATAT [XGTACX_site1065]	9.29 ± 0.42
ATATTATAGAAATATACACACATTGTTTTATAGCAT [CACACA_site7177]	7.75 ± 0.54
GTTTTGTACATATTCTCACACATATAAAAATACCCA [CACACA_site4446]	8.41 ± 0.27
AAGCATTTAATGTTTTATATAACATGTATTTTTTAT [CACACA_negctrl_site673]	7.68 ± 0.61

Sequence	gcPBM binding intensity (ln)
TTCATAATAAAAAGGTGTACATATATATATATATAT [XGTACX_site2829]	9.71 ± 0.2
TTTATATGTATACAAACATATAAATATAAATGTATT [TGCATGCA_negctrl_site346]	7.29 ± 0.48
TATATATACATATACACACACACACCGATATATATA [CACACA_site8706]	8.2 ± 0.73
TGTTCTATGATTTGTACACACTTTTTTTTAAAATGC [CACACA_site5558]	8.13 ± 0.39
TGTTAAAAGGTTAAATTAAAATAACCTCCGGAAATT [GTGCAC_negctrl_site236]	7.41 ± 0.69
GAATGCATGTAAATATGTACATATATTTAAAAATTT [XGTACX_site6032]	8.03 ± 0.54
AAAAAAATTTCACATTGTACTTTAATAATATACTAC [XGTACX_site7264]	7.77 ± 0.42
ATAAATATATATTTACGTACATATTATATATATATA [XGTACX_site6172]	8.77 ± 0.31
ACATATAAATTGTGTACACATATATATATATTTTTT [CACACA_site5946]	8.36 ± 0.29
ATAAATAATAAAAAATGTACACATATAAATATAAAG [XGTACX_site727]	7.89 ± 0.47
ATGATGAAAATAGAAATACACACTAAAAAATAAAAT [CACACA_site1136]	7.73 ± 0.78
AAAACATGTTCAACATGTACACAACAGGATGAATAT [XGTACX_site506]	8.02 ± 0.57
CTTACTTACTTACTCACACACATATACAAAGAAAAA [CACACA_site3347]	8.3 ± 0.47
AAATATATGTTATATGTGCACTTTTTTTTTTTTTTT [GTGCAC_site9667]	10.21 ± 0.035
TTTTACTAAATATATACACACATTATACATATATAT [CACACA_site9081]	7.88 ± 0.68
TAAAATGAATATAGGTGTACTTAAAAAAAAGTAAAA [XGTACX_site4613]	8.12 ± 0.35
TAAAAGAAATAATATACACACATATATAAAAATAAA [CACACA_site1329]	7.5 ± 0.54
TAAATTCTTTATAATCGTACATAAATAGAAAAATAA [XGTACX_site601]	7.75 ± 0.47
TATCGAGCCATTTTTACATGCAATTATACATAATTT [TGCATGCA_site987]	7.76 ± 0.59
TTCAAATAATTTAAATGTACGTTGCTTTATTAAAAG [XGTACX_site3674]	7.82 ± 0.47
